Results: the supplement of paper PMC4967469
By IC50 is meant the dose at which the fit gives 50% viability; a limit (>, <) means that the fit lies beyond the doses tested. The AUC spans the tested range (256-fold, ending at the top dose) of the same fit; it is 1 without any effect and falls as sensitivity rises. For some of these results: Any top dose called inferred was calculated from the reported fits.

Assays:
Assay in all cases: Viability of human cancer cell lines after 72 h of drug (GDSC screen)
[1] = compound: CO[C@H]1C[C@@H]2CC[C@@H](C)[C@@](O)(O2)C(=O)C(=O)N2CCCC[C@H]2C(=O)O[C@H]([C@H](C)C[C@@H]2CC[C@@H](OC(=O)C(C)(CO)CO)[C@H](OC)C2)CC(=O)[C@H](C)/C=C(\C)[C@@H](O)[C@@H](OC)C(=O)[C@H](C)C[C@H](C)/C=C/C=C/C=C/1C [Temsirolimus]; conditions: top dose 0.2 µM
Experimental: (§1)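 Human cancer cell lines in 384-well plates, medium with 10% serum, drug for 72 h over a 256-fold dose range (nine 2-fold or five 4-fold steps up to the top dose). Adherent lines were fixed and stained with the nucleic acid dye Syto60, suspension lines read with resazurin; signal relative to control wells, capped at 0 and 100%. One two-parameter sigmoid per drug and line, fitted in a mixed model over all curves with the slope shared within a line.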

[2] = compound: C=CC(=O)Nc1ccc(C(=O)c2sc(Nc3ccc(N4CCN(C)CC4)cc3OC)nc2N)cc1 [XMD15-27]; conditions: top dose 10.24 µM; top dose inferred
Experimental: as §1

[3] = compound: CC(=O)O[C@@H]1[C@@H](OC(C)=O)[C@@H](O)[C@H](Oc2c(-c3ccc(O)cc3)oc3cc(O)cc(O)c3c2=O)O[C@H]1C [SL 0101-1]; conditions: top dose 10 µM; top dose inferred
Experimental: as §1

Row | Cell Line | AUC [1] | IC50 [1] [µM] | AUC [2] | IC50 [2] [µM] | AUC [3] | IC50 [3] [µM]
1 | NCI-H1581 (large cell lung carcinoma, semi-adherent) | 0.895 | > 0.2 | 0.977 | > 10.2 | – | –
2 | NCI-H1666 (lung adenocarcinoma, semi-adherent) | 0.813 | 0.121 | 0.986 | > 10.2 | – | –
3 | NCI-H1734 (lung adenocarcinoma, adherent) | 0.932 | > 0.2 | 0.985 | > 10.2 | – | –
4 | NCI-H1963 (small cell lung carcinoma, suspension) | 0.974 | > 0.2 | – | – | – | –
5 | NCI-H2029 (small cell lung carcinoma, adherent) | 0.988 | > 0.2 | 0.992 | > 10.2 | – | –
6 | NCI-H2122 (lung adenocarcinoma, adherent) | 0.972 | > 0.2 | 0.984 | > 10.2 | – | –
7 | NTERA-2 cl.D1 (testis, adherent) | 0.561 | 0.0183 | 0.985 | > 10.2 | – | –
8 | OMC-1 (cervix, adherent) | 0.858 | 0.176 | 0.987 | > 10.2 | – | –
9 | PA-TU-8988T (pancreas, adherent) | 0.893 | > 0.2 | 0.987 | > 10.2 | – | –
10 | PANC-08-13 (pancreas, adherent) | 0.855 | > 0.2 | 0.983 | > 10.2 | – | –
11 | RCC-ER (kidney, adherent) | 0.797 | 0.108 | 0.981 | > 10.2 | – | –
12 | RL95-2 (endometrium, adherent) | 0.747 | 0.0632 | 0.987 | > 10.2 | – | –
13 | RMG-I (ovary, adherent) | 0.909 | > 0.2 | 0.983 | > 10.2 | – | –
14 | SCC-4 (head and neck, adherent) | 0.835 | 0.168 | 0.984 | > 10.2 | – | –
15 | SISO (cervix, adherent) | 0.778 | 0.0775 | 0.977 | > 10.2 | – | –
16 | SK-CO-1 (large intestine, adherent) | – | – | 0.989 | > 10.2 | 0.989 | > 10
17 | SK-LU-1 (lung adenocarcinoma, adherent) | – | – | 0.975 | > 10.2 | 0.877 | > 10
18 | SK-MEL-24 (melanoma, adherent) | 0.819 | 0.146 | 0.983 | > 10.2 | – | –
19 | SK-MEL-28 (melanoma, adherent) | – | – | 0.988 | > 10.2 | 0.975 | > 10
20 | SK-N-DZ (neuroblastoma, adherent) | 0.925 | > 0.2 | 0.988 | > 10.2 | – | –
21 | SK-OV-3 (ovary, adherent) | – | – | 0.968 | > 10.2 | 0.981 | > 10
22 | SNU-182 (liver, adherent) | 0.52 | 0.0142 | 0.986 | > 10.2 | – | –
23 | SNU-423 (liver, adherent) | 0.729 | 0.0633 | 0.95 | > 10.2 | – | –

Row | Cell Line | AUC [1] | IC50 [1] [µM] | AUC [2] | IC50 [2] [µM] | AUC [3] | IC50 [3] [µM]
24 | SR (lymphoid neoplasm, suspension) | 0.445 | 0.00896 | 0.708 | 2.3 | – | –
25 | SU-DHL-8 (B-cell lymphoma, suspension) | – | – | 0.969 | > 10.2 | 0.988 | > 10
26 | SU-DHL-10 (B-cell lymphoma, suspension) | – | – | 0.997 | > 10.2 | 0.998 | > 10
27 | SW620 (large intestine, adherent) | – | – | 0.937 | > 10.2 | 0.99 | > 10
28 | SW900 (lung squamous cell carcinoma, adherent) | – | – | 0.985 | > 10.2 | 0.945 | > 10
29 | SW1990 (pancreas, adherent) | 0.848 | 0.191 | 0.985 | > 10.2 | – | –
30 | SiHa (cervix, adherent) | 0.839 | 0.167 | 0.987 | > 10.2 | – | –
31 | TC-71 (Ewing sarcoma, adherent) | – | – | 0.992 | > 10.2 | 0.985 | > 10
32 | TCCSUP (bladder, adherent) | – | – | 0.984 | > 10.2 | 0.954 | > 10
33 | TE-10 (oesophagus, adherent) | – | – | 0.988 | > 10.2 | 0.978 | > 10
34 | THP-1 (acute myeloid leukaemia, suspension) | – | – | 0.977 | > 10.2 | 0.991 | > 10
35 | U031 (kidney, adherent) | – | – | 0.977 | > 10.2 | 0.969 | > 10
36 | U-2-OS (osteosarcoma, adherent) | 0.721 | 0.0565 | 0.973 | > 10.2 | – | –
37 | U-118-MG (glioma, adherent) | – | – | 0.985 | > 10.2 | 0.972 | > 10
38 | UM-UC-3 (bladder, adherent) | 0.606 | 0.0239 | 0.973 | > 10.2 | – | –
39 | UMC-11 (lung carcinoid, adherent) | 0.715 | 0.0469 | 0.991 | > 10.2 | – | –
40 | VM-CUB-1 (bladder, adherent) | – | – | 0.989 | > 10.2 | 0.92 | > 10
41 | VMRC-MELG (melanoma, adherent) | 0.95 | > 0.2 | 0.989 | > 10.2 | – | –
42 | VMRC-RCW (kidney, adherent) | 0.96 | > 0.2 | 0.989 | > 10.2 | – | –
43 | WM278 (melanoma, adherent) | 0.803 | 0.115 | 0.973 | > 10.2 | – | –
44 | huH-1 (liver, adherent) | – | – | 0.984 | > 10.2 | 0.983 | > 10
45 | no-10 (glioma, adherent) | 0.98 | > 0.2 | 0.965 | > 10.2 | – | –
